Measurements published in PubChem BioAssay AID1508623 (National Center for Advancing Translational Sciences (NCATS), 2021).
In all, about 48,000 compounds went through this assay and about 450 (0.94%) were called active. Inconclusive results (about 19%) are left out. The call rests on the fitted dose curve; in most records, active means well fitted inhibition curve with a large enough effect; inconclusive means small, poorly fitted or top-dose-only effect; inactive means no such curve, though single readings can be large or run the other way. This is one part of the list.

experiment: Primary qHTS for Identification of Small Molecule Inhibitors of Huntingtin Promoter Activity; settings: HEK293 HTT promoter firefly luciferase reporter (activity 0% = vehicle and -100% = no light), 24 h; series mostly up to 57.5 µM; activity change, negative = inhibition: at the top concentration; further: nearly all actives have a fitted effect of over 50% in size
How it was run: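 HEK293 Fluc reporter, 2,500 cells/well, 24 h pre-culture; cpds up to 57.5 uM final, 24 h 37 degrees C; Dual-Glo, 10 min RT; normalized vehicle = 0%, zero RLU = -100%.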

Activity change, negative = inhibition, inactive:
COc1ccc2c(c1)c(=O)c(S(=O)(=O)c1ccccc1)cn2CC(=O)Nc1ccc2c(c1)OCO2 -12.2%
CCCN(C(=O)Cn1ncc2c([nH]c3ccccc32)c1=O)c1ccc(F)cc1 -25.5%
CCOC(=O)C1CCCN(C(=O)c2ccc3c(c2)N(Cc2ccccc2F)C(=O)c2ccccc2S3=O)C1 (centres undefined) -5.54%
COc1ccc(CCNC(=O)CCn2c(=O)c3ccccc3n(CC(=O)Nc3cc(Cl)ccc3C)c2=O)cc1OC -9.75%
CC(=O)c1cccc(NC(=O)CCCSc2nc(-c3ccco3)cc(C(F)(F)F)n2)c1 -27.5%
COC(=O)C1C2CC3c4[nH]c5cc(OC)ccc5c4CCN3CC2CC(OC(=O)c2cc(OC)c(OC)c(OC)c2)C1OC (centres undefined) -6.59%
CCc1ccccc1NC(=O)Nc1cc(C(=O)NCc2ccccc2OC)ccc1N1CCCC1 -9.05%
CCOC(=O)C(C)(C)Oc1ccc(Cl)cc1
COc1ccc(NC(=O)CN2C(=O)C(c3ccc(C)cc3)=NC23CCCCCC3)cc1Cl -29.6%
CN(C)CCNC(=O)C(=O)NCC(c1cccnc1)N1CCN(c2ccccc2)CC1 (centres undefined) -15%
Cc1ccc(C)c(Cn2c(=O)n(-c3ccc(F)cc3)c(=O)c3sc4ccccc4c32)c1 -11%
CC(=O)N1CCc2cc(S(=O)(=O)NC(Cc3ccccc3)C(=O)Nc3ccc(C)cc3C)ccc21 (centres undefined) -22.8%
O=C(CSc1nc2ccsc2c(=O)n1Cc1ccccc1F)NCc1ccccc1Cl -24.7%
O=c1cc2nc(-c3ccccc3)nc(SCCOc3ccc(Cl)cc3)n2[nH]1 -13.4%
COc1ccc(C(=O)Nc2ccc3oc(-c4cc(Cl)ccc4Cl)nc3c2)cc1Br 5.73%
CCOC(=O)c1cnc2c(C)cc(C)cc2c1Nc1ccccc1OCC 1.41%
Cc1nn2c(-c3ccco3)ccnc2c1-c1ccc(Cl)cc1 26.9%
O=C1CCCc2c(O)cccc21 10.4%
COC(=O)c1c(NC(=O)/C=C/c2ccc(OC)cc2)sc2c1CCC2 9.52%
COc1ccc(CNC(=O)CSc2ncc3c(n2)-c2cc(Cl)ccc2N(C)S3(=O)=O)cc1 -20.9%
CC(C)c1cnc2c(c1SCC(=O)Nc1ccc(C(N)=O)cc1)c(=O)n(C)c(=O)n2C -1.39%
CCOC(=O)Cn1c(-c2cccs2)cc2cc(Cl)ccc21 -20.7%
Cc1ccc(NC(=O)Nc2cccs2)c(C)c1 -4.48%
O=C(Cn1c(=O)n(-c2ccccc2)c(=O)c2ccc(C(=O)NCc3ccc4c(c3)OCO4)cc21)Nc1ccc(F)c(Cl)c1 -20%
CN(CCCNC(=O)c1cc2c(=O)n(C)c3ccccc3c2s1)Cc1ccccc1 4.71%
COc1ccc(N(C(=O)c2cccc(C)c2)S(=O)(=O)c2ccc3c(c2)n(C)c(=O)n3C)cc1 0.939%
CCOC(=O)c1cc(OC(=O)c2ccccc2OC)n(-c2ccccc2)n1 -4.02%
COc1ccc(CCNC(=O)c2ccc3c(c2)N(Cc2cccc(Cl)c2)C(=O)c2ccccc2S3=O)cc1OC (centres undefined) -13.2%
O=C(c1ccccc1Br)N(Cc1ccccc1F)C1CCS(=O)(=O)C1 (centres undefined) 2.01%
CN1CCN(C(=O)c2ccc3c(c2)N(Cc2ccc(Cl)cc2)C(=O)c2ccccc2S3(=O)=O)CC1 -9.19%
Cc1cccc(CC(=O)NCCc2sc3nc(-c4ccc(F)cc4)nn3c2C)c1 -29.5%
COc1ccc(OCC(=O)N(Cc2ccc(C)o2)C2CCS(=O)(=O)C2)cc1 (centres undefined) -10.3%
CCOc1ccc(CCNC(=O)c2ccc(-c3nc(CSc4ccccc4)c(C)o3)cc2)cc1 -7.14%
CCc1ccc(N(CC)C(=O)c2sc3nc4n(c(=O)c3c2C)CCCC4)cc1 -21.6%
O=C(Cn1c(=O)ccc2cc(S(=O)(=O)N3CCCC3)ccc21)Nc1ccc(Cl)cc1 -25.7%
NS(=O)(=O)c1cc(-c2nn[nH]n2)c(NCc2cccs2)cc1Cl 13.5%
Cn1nnnc1SCCCNCc1ccccc1OCc1ccc(F)cc1 -32.7%
CCN(C(=O)c1cn(C)c(=O)c2ccccc12)c1cccc(C)c1 -11.6%
O=C(CCc1ccccc1)NCc1ccc2c(c1)CCN2C(=O)c1ccccc1 -7.83%
CC(=O)N1CCc2c(sc3c2c(=O)n(CCc2ccccc2)c(=O)n3CC(=O)Nc2ccccc2F)C1 -8.35%
COc1ccc(-n2c(SCC(=O)c3ccc(Cl)cc3)nc3c([nH]c4ccccc43)c2=O)cc1 -1.38%
COc1cccc(NC(=O)Cn2c(=O)n(-c3ccccc3)c(=O)c3ccc(C(=O)NCc4ccc5c(c4)OCO5)cc32)c1 -22%
COc1ccccc1N1CCN(c2ccc(=O)n(CC(=O)Nc3cc(F)ccc3C)n2)CC1 -0.83%
CCc1ccc(NC(=O)CN2C(=O)C3CCCN3c3ccc(S(=O)(=O)N(CC)CC)cc32)cc1 (centres undefined) -20.1%
Cn1cc(S(=O)(=O)N2CCCCCC2)cc1C(=O)N1CCN(c2ccccc2F)CC1 -24.3%
CCC(Cc1c(I)cc(I)c(N)c1I)C(=O)O (centres undefined) -7.9%
Cc1ccccc1Nc1sc(C(=O)c2ccccc2)c(N)c1S(C)(=O)=O -27.5%
Cc1cc(NC(=O)CSc2nc(-c3cccc(F)c3)nc3c2c(=O)n(C)c(=O)n3C)no1 -12.1%
CCc1ccc(NC(=O)Cn2c(=O)n(CCCC(=O)NCc3ccccc3Cl)c(=O)c3ccccc32)cc1 -4.72%
CCOC(=O)c1ccc(N2CC3=C(C2=O)C(c2ccc(OC)cc2)NC(=O)N3C)cc1 (centres undefined) -13.2%
COc1ccc2c(Sc3ccc(C)cc3)c(C(=O)NCC(C)c3ccccc3)[nH]c2c1 (centres undefined) -4.98%
COc1ccc(N(CC(=O)N2CCN(c3ccccc3F)CC2)S(=O)(=O)c2c(C)noc2C)cc1 -9.03%
Cc1ccc(CNC(=O)c2cc3c(=O)oc4ccc(C)cc4c3s2)cc1 -5.58%
CN1CCc2cccc3c2[C@H]1Cc1ccc(O)c(O)c1-3 -2.71%
CCCNC(=O)Cn1nc(-c2ccc(C)c(C)c2)c2cnc3ccc(OC)cc3c21 -12%
COc1ccccc1NC(=O)Cn1cnc2ccc(S(=O)(=O)N3CCC(C)CC3)cc2c1=O -16.1%
C[C@H](NC(=O)Cc1cc(F)cc(F)c1)C(=O)N[C@H](C(=O)OC(C)(C)C)c1ccccc1 -8.15%
COc1ccc(NC(=O)Cn2c(=O)n(Cc3ccco3)c(=O)c3sc4ccccc4c32)c(OC)c1 -28.1%
CCOC(=O)c1ccc(OC(=O)c2cn(-c3ccc(C)cc3)c(=O)c3ccccc23)cc1 -10.2%
